Source: article PMC12820563, “FoxP3 forms a head-to-head dimer in vivo and stabilizes its multimerization on adjacent microsatellites”
Some of the results follow.

Target: T1, MBP-FoxP1dN (Mus musculus, UniProt P58462 326-579)
T1 sequence: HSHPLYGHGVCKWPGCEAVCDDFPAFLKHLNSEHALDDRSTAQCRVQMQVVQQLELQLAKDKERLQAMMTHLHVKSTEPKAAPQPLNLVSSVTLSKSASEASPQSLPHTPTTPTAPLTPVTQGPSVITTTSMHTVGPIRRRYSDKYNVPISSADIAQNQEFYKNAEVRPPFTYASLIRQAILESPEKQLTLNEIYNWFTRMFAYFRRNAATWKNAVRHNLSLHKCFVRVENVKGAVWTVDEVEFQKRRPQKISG
Experiment: PD-seq (MBP pull-down with sequencing); 20 mM Tris-HCl pH 7.5, 100 mM NaCl, 1.5 mM MgCl2, 0.4 uM protein, 0.1 uM dsDNA library, 30 min, room temperature, amylose pull-down; high values mean tight binding
Conditions: protein: recombinant; tags: His6-MBP; chain copies: 2; dsDNA, one strand shown
Procedure, shortened: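 Binding is given as reads-per-million enrichment, pull-down over input, with replicates pooled. The bait was an N-terminus-lacking mouse FoxP3 or FoxP1 fragment with a His6-MBP tag, expressed in E. coli and used at 0.4 µM with 0.1 µM Klenow-filled degenerate double-stranded DNA library for 30 min at room temperature in Tris pH 7.5 buffer with NaCl and MgCl2. Amylose resin pull-down with three washes was followed by proteinase K release, PCR barcoding and Illumina sequencing.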

Sequence	binding signal
GATGATTGTTCTCCCAGCTGATGAATTGTATAACTCGAGTAAACAAATTTTCCTAATCTTTCTGTTCAAGCGCCATCTAC	1.04 RPM ratio (pull-down/input)
GATGATTGTTCTCCCAGCTGATGAATTTAGTGTTTCGAGTAAACAAATTTTCCTAATCTTTCTGTTCAAGCGCCATCTAC	1.15 RPM ratio (pull-down/input)
GATGATTGTTCTCCCAGCTGATGAATTGTAGTAATCGAGTAAACAAATTTTCCTAATCTTTCTGTTCAAGCGCCATCTAC	1.58 RPM ratio (pull-down/input)
GATGATTGTTCTCCCAGCTGATGAATTGCTTACTTCGAGTAAACAAATTTTCCTAATCTTTCTGTTCAAGCGCCATCTAC	1.48 RPM ratio (pull-down/input)
GATGATTGTTCTCCCAGCTGATGAATTCTTAAATTCGAGTAAACAAATTTTCCTAATCTTTCTGTTCAAGCGCCATCTAC	0.955 RPM ratio (pull-down/input)
GATGATTGTTCTCCCAGCTGATGAATTTTGATTTTCGAGTAAACAAATTTTCCTAATCTTTCTGTTCAAGCGCCATCTAC	1.13 RPM ratio (pull-down/input)
GATGATTGTTCTCCCAGCTGATGAATTTAACGGCTCGAGTAAACAAATTTTCCTAATCTTTCTGTTCAAGCGCCATCTAC	0.757 RPM ratio (pull-down/input)
GATGATTGTTCTCCCAGCTGATGAATTCTGAAGTTCGAGTAAACAAATTTTCCTAATCTTTCTGTTCAAGCGCCATCTAC	0.865 RPM ratio (pull-down/input)
GATGATTGTTCTCCCAGCTGATGAATTTCAGAAGTCGAGTAAACAAATTTTCCTAATCTTTCTGTTCAAGCGCCATCTAC	0.764 RPM ratio (pull-down/input)
GATGATTGTTCTCCCAGCTGATGAATTCACGAAGTCGAGTAAACAAATTTTCCTAATCTTTCTGTTCAAGCGCCATCTAC	0.877 RPM ratio (pull-down/input)
GATGATTGTTCTCCCAGCTGATGAATTCCAACCTTCGAGTAAACAAATTTTCCTAATCTTTCTGTTCAAGCGCCATCTAC	0.761 RPM ratio (pull-down/input)
GATGATTGTTCTCCCAGCTGATGAATTGGATGAATCGAGTAAACAAATTTTCCTAATCTTTCTGTTCAAGCGCCATCTAC	0.957 RPM ratio (pull-down/input)
GATGATTGTTCTCCCAGCTGATGAATTGCTGTACTCGAGTAAACAAATTTTCCTAATCTTTCTGTTCAAGCGCCATCTAC	1.01 RPM ratio (pull-down/input)
GATGATTGTTCTCCCAGCTGATGAATTGTTCTAATCGAGTAAACAAATTTTCCTAATCTTTCTGTTCAAGCGCCATCTAC	1.41 RPM ratio (pull-down/input)
GATGATTGTTCTCCCAGCTGATGAATTTATGAAGTCGAGTAAACAAATTTTCCTAATCTTTCTGTTCAAGCGCCATCTAC	1.07 RPM ratio (pull-down/input)
GATGATTGTTCTCCCAGCTGATGAATTACTAAAGTCGAGTAAACAAATTTTCCTAATCTTTCTGTTCAAGCGCCATCTAC	1.21 RPM ratio (pull-down/input)
GATGATTGTTCTCCCAGCTGATGAATTTTTAAAGTCGAGTAAACAAATTTTCCTAATCTTTCTGTTCAAGCGCCATCTAC	0.941 RPM ratio (pull-down/input)
GATGATTGTTCTCCCAGCTGATGAATTACGTTCCTCGAGTAAACAAATTTTCCTAATCTTTCTGTTCAAGCGCCATCTAC	0.969 RPM ratio (pull-down/input)
GATGATTGTTCTCCCAGCTGATGAATTAAAACTTTCGAGTAAACAAATTTTCCTAATCTTTCTGTTCAAGCGCCATCTAC	0.94 RPM ratio (pull-down/input)
GATGATTGTTCTCCCAGCTGATGAATTAAGCGCTTCGAGTAAACAAATTTTCCTAATCTTTCTGTTCAAGCGCCATCTAC	0.889 RPM ratio (pull-down/input)
GATGATTGTTCTCCCAGCTGATGAATTTCACCTGTCGAGTAAACAAATTTTCCTAATCTTTCTGTTCAAGCGCCATCTAC	0.749 RPM ratio (pull-down/input)

Sequence	binding signal
GATGATTGTTCTCCCAGCTGATGAATTGTCCTCGTCGAGTAAACAAATTTTCCTAATCTTTCTGTTCAAGCGCCATCTAC	1.04 RPM ratio (pull-down/input)
GATGATTGTTCTCCCAGCTGATGAATTTCTCAACTCGAGTAAACAAATTTTCCTAATCTTTCTGTTCAAGCGCCATCTAC	0.898 RPM ratio (pull-down/input)
GATGATTGTTCTCCCAGCTGATGAATTAGTCGCTTCGAGTAAACAAATTTTCCTAATCTTTCTGTTCAAGCGCCATCTAC	0.918 RPM ratio (pull-down/input)
GATGATTGTTCTCCCAGCTGATGAATTCTTGATATCGAGTAAACAAATTTTCCTAATCTTTCTGTTCAAGCGCCATCTAC	1.06 RPM ratio (pull-down/input)
GATGATTGTTCTCCCAGCTGATGAATTTGTGGTGTCGAGTAAACAAATTTTCCTAATCTTTCTGTTCAAGCGCCATCTAC	1.21 RPM ratio (pull-down/input)
GATGATTGTTCTCCCAGCTGATGAATTGACCCTATCGAGTAAACAAATTTTCCTAATCTTTCTGTTCAAGCGCCATCTAC	0.947 RPM ratio (pull-down/input)
GATGATTGTTCTCCCAGCTGATGAATTTAGGAGGTCGAGTAAACAAATTTTCCTAATCTTTCTGTTCAAGCGCCATCTAC	0.815 RPM ratio (pull-down/input)
GATGATTGTTCTCCCAGCTGATGAATTTACCATATCGAGTAAACAAATTTTCCTAATCTTTCTGTTCAAGCGCCATCTAC	1.44 RPM ratio (pull-down/input)
GATGATTGTTCTCCCAGCTGATGAATTCTCCCCGTCGAGTAAACAAATTTTCCTAATCTTTCTGTTCAAGCGCCATCTAC	0.792 RPM ratio (pull-down/input)
GATGATTGTTCTCCCAGCTGATGAATTCATAAGTTCGAGTAAACAAATTTTCCTAATCTTTCTGTTCAAGCGCCATCTAC	0.89 RPM ratio (pull-down/input)
GATGATTGTTCTCCCAGCTGATGAATTTCGGCCCTCGAGTAAACAAATTTTCCTAATCTTTCTGTTCAAGCGCCATCTAC	0.763 RPM ratio (pull-down/input)
GATGATTGTTCTCCCAGCTGATGAATTTGGATAATCGAGTAAACAAATTTTCCTAATCTTTCTGTTCAAGCGCCATCTAC	1.14 RPM ratio (pull-down/input)
GATGATTGTTCTCCCAGCTGATGAATTCTGCCAGTCGAGTAAACAAATTTTCCTAATCTTTCTGTTCAAGCGCCATCTAC	0.818 RPM ratio (pull-down/input)
GATGATTGTTCTCCCAGCTGATGAATTATTCTCGTCGAGTAAACAAATTTTCCTAATCTTTCTGTTCAAGCGCCATCTAC	0.942 RPM ratio (pull-down/input)
GATGATTGTTCTCCCAGCTGATGAATTACTGACATCGAGTAAACAAATTTTCCTAATCTTTCTGTTCAAGCGCCATCTAC	1.1 RPM ratio (pull-down/input)
GATGATTGTTCTCCCAGCTGATGAATTTAAGGCATCGAGTAAACAAATTTTCCTAATCTTTCTGTTCAAGCGCCATCTAC	1 RPM ratio (pull-down/input)
GATGATTGTTCTCCCAGCTGATGAATTTTAGATATCGAGTAAACAAATTTTCCTAATCTTTCTGTTCAAGCGCCATCTAC	1.04 RPM ratio (pull-down/input)
GATGATTGTTCTCCCAGCTGATGAATTGGCATCTTCGAGTAAACAAATTTTCCTAATCTTTCTGTTCAAGCGCCATCTAC	1.1 RPM ratio (pull-down/input)
GATGATTGTTCTCCCAGCTGATGAATTAAGGCCTTCGAGTAAACAAATTTTCCTAATCTTTCTGTTCAAGCGCCATCTAC	0.867 RPM ratio (pull-down/input)
GATGATTGTTCTCCCAGCTGATGAATTTAGGACGTCGAGTAAACAAATTTTCCTAATCTTTCTGTTCAAGCGCCATCTAC	0.956 RPM ratio (pull-down/input)
GATGATTGTTCTCCCAGCTGATGAATTACTATGTTCGAGTAAACAAATTTTCCTAATCTTTCTGTTCAAGCGCCATCTAC	1.25 RPM ratio (pull-down/input)

Sequence	binding signal
GATGATTGTTCTCCCAGCTGATGAATTGTATCAATCGAGTAAACAAATTTTCCTAATCTTTCTGTTCAAGCGCCATCTAC	1.25 RPM ratio (pull-down/input)
GATGATTGTTCTCCCAGCTGATGAATTCAATGGCTCGAGTAAACAAATTTTCCTAATCTTTCTGTTCAAGCGCCATCTAC	0.854 RPM ratio (pull-down/input)
GATGATTGTTCTCCCAGCTGATGAATTCACGACCTCGAGTAAACAAATTTTCCTAATCTTTCTGTTCAAGCGCCATCTAC	0.767 RPM ratio (pull-down/input)
GATGATTGTTCTCCCAGCTGATGAATTAGGCTTCTCGAGTAAACAAATTTTCCTAATCTTTCTGTTCAAGCGCCATCTAC	0.864 RPM ratio (pull-down/input)
GATGATTGTTCTCCCAGCTGATGAATTTCTCGACTCGAGTAAACAAATTTTCCTAATCTTTCTGTTCAAGCGCCATCTAC	0.876 RPM ratio (pull-down/input)
GATGATTGTTCTCCCAGCTGATGAATTGTGATGCTCGAGTAAACAAATTTTCCTAATCTTTCTGTTCAAGCGCCATCTAC	1.54 RPM ratio (pull-down/input)
GATGATTGTTCTCCCAGCTGATGAATTGAACATGTCGAGTAAACAAATTTTCCTAATCTTTCTGTTCAAGCGCCATCTAC	0.848 RPM ratio (pull-down/input)
GATGATTGTTCTCCCAGCTGATGAATTGGTTACCTCGAGTAAACAAATTTTCCTAATCTTTCTGTTCAAGCGCCATCTAC	0.933 RPM ratio (pull-down/input)
GATGATTGTTCTCCCAGCTGATGAATTCCGGGAGTCGAGTAAACAAATTTTCCTAATCTTTCTGTTCAAGCGCCATCTAC	0.742 RPM ratio (pull-down/input)
GATGATTGTTCTCCCAGCTGATGAATTTCCCTTCTCGAGTAAACAAATTTTCCTAATCTTTCTGTTCAAGCGCCATCTAC	0.799 RPM ratio (pull-down/input)
GATGATTGTTCTCCCAGCTGATGAATTACGGTATTCGAGTAAACAAATTTTCCTAATCTTTCTGTTCAAGCGCCATCTAC	1.14 RPM ratio (pull-down/input)
GATGATTGTTCTCCCAGCTGATGAATTCCTATTCTCGAGTAAACAAATTTTCCTAATCTTTCTGTTCAAGCGCCATCTAC	0.762 RPM ratio (pull-down/input)
GATGATTGTTCTCCCAGCTGATGAATTCGCCGCATCGAGTAAACAAATTTTCCTAATCTTTCTGTTCAAGCGCCATCTAC	1.04 RPM ratio (pull-down/input)
GATGATTGTTCTCCCAGCTGATGAATTCTTCCCCTCGAGTAAACAAATTTTCCTAATCTTTCTGTTCAAGCGCCATCTAC	0.856 RPM ratio (pull-down/input)
GATGATTGTTCTCCCAGCTGATGAATTCACCGGGTCGAGTAAACAAATTTTCCTAATCTTTCTGTTCAAGCGCCATCTAC	0.769 RPM ratio (pull-down/input)
GATGATTGTTCTCCCAGCTGATGAATTTTAAGGTTCGAGTAAACAAATTTTCCTAATCTTTCTGTTCAAGCGCCATCTAC	0.819 RPM ratio (pull-down/input)
GATGATTGTTCTCCCAGCTGATGAATTGAGCACATCGAGTAAACAAATTTTCCTAATCTTTCTGTTCAAGCGCCATCTAC	1.03 RPM ratio (pull-down/input)
GATGATTGTTCTCCCAGCTGATGAATTCCGAAGGTCGAGTAAACAAATTTTCCTAATCTTTCTGTTCAAGCGCCATCTAC	0.755 RPM ratio (pull-down/input)
GATGATTGTTCTCCCAGCTGATGAATTCAGTACATCGAGTAAACAAATTTTCCTAATCTTTCTGTTCAAGCGCCATCTAC	1.01 RPM ratio (pull-down/input)
GATGATTGTTCTCCCAGCTGATGAATTAAGCAATTCGAGTAAACAAATTTTCCTAATCTTTCTGTTCAAGCGCCATCTAC	1.07 RPM ratio (pull-down/input)
GATGATTGTTCTCCCAGCTGATGAATTCGTAAGTTCGAGTAAACAAATTTTCCTAATCTTTCTGTTCAAGCGCCATCTAC	0.865 RPM ratio (pull-down/input)
